Results reported in PubChem BioAssay AID493208 (National Center for Advancing Translational Sciences (NCATS), 2011).
The campaign covered roughly 44,000 compounds. About 340 (0.77%) were called active. About 5% were inconclusive and are not listed. Calls follow the shape of the dose curve; as a rule, active = well fitted inhibition curve with a large enough effect; inconclusive = small, poorly fitted or top-dose-only effect; inactive = flat fitted curve, though single readings scatter. Some of the results follow.

experiment: Acumen qHTS Assay for Inhibitors of the mTORC1 Signaling Pathway in MEF (Tsc2-/-, p53-/-) Cells: Sytravon; conditions: phospho-rpS6 immunofluorescence/PI, 24 h; series mostly up to 38.3 µM; activity change, negative = inhibition: at the top concentration; also: nearly all actives have a fitted effect of over 50% in size;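 as to activity change, negative = inhibition: plate controls were DMSO for no effect and rapamycin for full effect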
How it was run: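 Immunofluorescence of rpS6 phosphorylation in Tsc2-/-, p53-/- MEFs after 24 h compound exposure, normalized to propidium iodide signal. Activity is expressed as % positive cells, thresholded with 7.5 nM rapamycin.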
Potency is read from the fitted curve at half-maximal effect.

Structure (SMILES) | activity change, negative = inhibition | Potency
Cc1ccc(C)c(N2CCN(C(=O)CCc3c(C)nc4c(c3C)c(=O)n(C)c(=O)n4C)CC2)c1 | inactive: -4.29% | –
CCN1CCN(C(=O)Cn2c(-c3cccs3)cc3cc(Cl)ccc32)CC1 | inactive: -9.24% | –
COc1ccccc1CNC(=O)C1CCN(c2ncnc3c2nc2n3CCCCC2)CC1 | inactive: -8.73% | –
CC(C)CCNC(=O)c1c[nH]c2ccc(S(=O)(=O)Nc3cccc(C(F)(F)F)c3)cc2c1=O | inactive: -0.233% | –
CCc1ccc(-n2c3nc(=O)[nH]c(=O)c-3cc3c(C)nn(-c4ccccc4)c32)cc1 | inactive: -5.79% | –
COc1ccc(C(CNC(=O)c2oc3ccccc3c2C)N2CCCCC2)cc1 (stereo unspecified) | inactive: -0.166% | –
COc1cc(Cl)c(C)cc1NC(=O)c1c(C)oc2nc(C)nc(N3CCCC3)c12 | inactive: -3.92% | –
Cc1noc(-c2ccc(N3CCCCC3C)c([N+](=O)[O-])c2)n1 (stereo unspecified) | inactive: 3.92% | –
CCc1nnc(NC(=O)CSc2nccn2Cc2ccccc2)s1 | inactive: -15.5% | –
O=C1CCCc2cc(S(=O)(=O)N3CCCC(C(=O)NCc4ccccc4Cl)C3)ccc2N1 (stereo unspecified) | inactive: 6.95% | –
Cc1ccc(-c2noc(-c3nnn(CC(=O)Nc4ccc(C)cc4Cl)c3N)n2)cc1 | inactive: -13.9% | –
Cc1ccc(-n2c(=O)c3oc4ccccc4c3n(Cc3ccccc3)c2=O)cc1C | inactive: 2.54% | –
CCC(=O)N1CCc2cc(CNS(=O)(=O)c3ccccc3F)ccc21 | inactive: -7.98% | –
Cc1cc(C)cc(NS(=O)(=O)c2ccc3[nH]cc(C(=O)N4CCCCC4)c(=O)c3c2)c1 | inactive: 7.17% | –
COc1cccc(CNC(=O)C(Cc2ccccc2)NS(=O)(=O)c2ccc3c(c2)CCN3C(C)=O)c1 (stereo unspecified) | inactive: -0.717% | –
CCOc1ccccc1CNC(=O)c1ccc2c(c1)N(CC)CCS2 | inactive: -0.884% | –
Cc1ccc(NC(=O)CCc2nc(-c3ccccc3F)no2)c(C)c1 | inactive: 3.05% | –
CCOc1cc2c(cc1OCC)C(CC(=O)OC)N(C(=O)Nc1cc(C)cc(C)c1)CC2 (stereo unspecified) | inactive: 11.1% | –
CS(=O)(=O)c1ncc(Cl)c(C(=O)N(Cc2ccc(Cl)cc2)Cc2ccco2)n1 | – | active: 1850 nM
Cc1cccc(OCC(=O)Nc2nnc(S(=O)(=O)N3CCCCCC3)s2)c1 | inactive: -12.3% | –
Cc1ccc(-n2nc(C(=O)NC(C)C)c(=O)n(C)c2=O)cc1 | inactive: -9.34% | –
Cc1oc(-c2ccccc2Cl)nc1CS(=O)CC(=O)N1CCN(c2cccc(C(F)(F)F)c2)CC1 (stereo unspecified) | inactive: -16.7% | –
Cc1nc2sccn2c(=O)c1S(=O)(=O)Nc1ccc(N2CCN(C)CC2)cc1 | inactive: 2.77% | –
COc1cc(OC)c(NC(=O)NCCn2nnc3cc(S(=O)(=O)N(C)C)ccc32)cc1Cl | inactive: 0% | –

Structure (SMILES) | activity change, negative = inhibition | Potency
COc1ccc(-c2nn3c(=O)cc(CN4CCN(C(=O)Nc5cc(C)ccc5C)CC4)nc3s2)cc1 | inactive: 0% | –
CCCCSCCCNC(=O)C1CCN(Cc2nc(-c3ccc(CC)cc3)oc2C)CC1 | inactive: -1.39% | –
Cc1cccc(N2CCN(C(=O)c3sc4nc5n(c(=O)c4c3C)CCC5)CC2C)c1 (stereo unspecified) | inactive: -1.69% | –
CCOc1ccc(CCNC(=O)C(CC)n2nc(C)c3c(C)n(-c4ccccc4)nc3c2=O)cc1 (stereo unspecified) | inactive: -13.1% | –
COc1ccc(-c2c(C#N)c(SCC(=O)Nc3ccc(C)c(C)c3)nc(C)c2C(=O)Nc2ccc(Cl)cc2)cc1 | inactive: 7.49% | –
CCOC(=O)c1c(C)[nH]c(C)c1S(=O)(=O)N1CCC(C(=O)NCc2ccc(F)cc2)CC1 | inactive: 0% | –
O=C(CSc1nnc(-c2ccccc2Br)n1-c1ccccc1)c1ccc(F)cc1 | inactive: 2.07% | –
Cc1nc2ccn(Cc3cccnc3)c(=O)c2cc1C(=O)NCc1ccccc1 | inactive: -0.18% | –
O=C(NC1CCCC1)c1ccc(CSc2nc3cccnc3n2Cc2cccc(F)c2)cc1 | inactive: -10.2% | –
CC(C)(C)C1CCc2nc(NC(=O)c3cccc(Cl)c3)sc2C1 (stereo unspecified) | inactive: 2.54% | –
O=c1[nH]c(SCc2ccccc2)nc2c1CCCC2 | inactive: -30.1% | –
COc1ccc(NC(=O)C2=C(C)Nc3ncnn3C2c2sccc2C)cc1 (stereo unspecified) | inactive: 3.93% | –
COc1cc(OC)c(NC(=O)Cc2c(C(=O)O)c(C)cn2C)cc1Cl | inactive: -0.0216% | –
Cc1ccc2oc(=O)n(CCNC(=O)Nc3ccccc3C)c2c1 | inactive: -3.56% | –
CCc1ccc(OCC(=O)Nc2ccc(S(=O)(=O)Nc3onc(C)c3C)cc2)cc1 | inactive: -3.3% | –
COc1ccc(OC2CCN(S(=O)(=O)c3cccc(F)c3)CC2)cc1 | inactive: -11.5% | –
Cc1ccc(CNC(=O)Cc2c(C(=O)O)c(C)cn2C)cc1 | inactive: -2.23% | –
CCOc1ccc(CN2C(=O)c3ccccc3Sc3ccc(C(=O)NCc4ccc5c(c4)OCO5)cc32)cc1 | inactive: -10.6% | –
Cc1ccccc1NC(=O)Nc1csc2c1CCCC2 | inactive: -4.6% | –
COc1ccc(C(=O)CSc2nc3cc(C(=O)NC4CCCC4)ccc3c(=O)n2CC2CCCO2)cc1 (stereo unspecified) | inactive: -4.5% | –
Cc1cccc(C(=O)N2CCNC(=O)C2CC(=O)Nc2ccc(F)cc2)c1 (stereo unspecified) | inactive: -5.29% | –
COC(=O)c1cc2oc3ccccc3c2n1CC(=O)Nc1cccc(SC)c1 | inactive: -2.08% | –
Cc1cccc(NC(=O)Cn2c(=O)n(CCc3ccccc3)c(=O)c3ccccc32)c1 | inactive: -18.6% | –
COc1ccc(C2C(C(=O)Nc3ccccc3)=C(C)Nc3nc(-c4ccccc4)nn32)c(OC)c1 (stereo unspecified) | inactive: -1.91% | –

Structure (SMILES) | activity change, negative = inhibition | Potency
CCCc1cnc2c(c1SCc1cccc(C)c1)c(=O)n(C)c(=O)n2C | inactive: 3.15% | –
CCCOc1cccc(C(=O)Nc2cc(-c3nc4ccccc4[nH]3)ccc2C)c1 | inactive: -3.84% | –
COc1cc(OC)c(NC(=O)c2sc3nc4n(c(=O)c3c2C)CCCC4)cc1Cl | inactive: 7.79% | –
COc1ccc(S(=O)(=O)NCCc2sc(C)nc2C)cc1 | inactive: -16.3% | –
O=C(CC1C(=O)OCCN1Cc1ccccc1)Nc1cccc(Cl)c1 (stereo unspecified) | inactive: 4.31% | –
Cc1ccc(CCNC(=O)CN2C(=O)COc3ccc(S(=O)(=O)N4CCCC4)cc32)cc1 | inactive: 4.41% | –
COc1ccc(-n2c(-c3ccccc3F)nc3c(cnn3-c3ccc(C)cc3)c2=O)cc1 | inactive: -1.8% | –
CCOc1cc(Cn2c(-c3ccc(O)c(OCC)c3)nc3ccccc32)ccc1O | inactive: -9.89% | –
CCCCC(=O)N1CC(=O)Nc2ccc(F)cc2C1c1ccc(F)cc1 (stereo unspecified) | inactive: 2.13% | –
CCn1c(CNC(=O)C23CC4CC(CC(C4)C2)C3)nnc1SCC(=O)Nc1ccc(C)cc1 | inactive: -6.14% | –
CC(=O)c1ccc(NC(=O)c2sc(-n3nc(C)c(CCC(C)C)c3C)nc2C)cc1 | inactive: -6.89% | –
Cc1ccc(S(=O)Cc2ccc(C(=O)NCc3ccc(OC(C)C)cc3)o2)cc1 (stereo unspecified) | inactive: -6.03% | –
Cc1nc2c3cccnc3nn2c(C)c1CCC(=O)NCc1ccccc1Cl | inactive: -11.6% | –
Cc1ccc2c(Sc3ccccc3)c(C(=O)NCc3ccccc3F)[nH]c2c1 | inactive: -0.663% | –
CCOc1ccccc1NC(=O)CSc1nc2ccccc2nc1Cc1ccc(C)cc1 | inactive: 10.4% | –
CCN(CC)S(=O)(=O)c1nnc(NC(=O)COc2ccc(C)cc2)s1 | inactive: -2.7% | –
CC(=O)Nc1ccccc1-c1nc2ccccc2n(C(C)C(=O)Nc2cc(Cl)ccc2C)c1=O (stereo unspecified) | inactive: 0% | –
Cc1ccc(C)c(NC(=O)CSc2nnc(CNC(=O)c3ccccc3)n2-c2ccccc2)c1 | inactive: 1.01% | –
CCOc1ccc(NC(=O)c2ccc(CN3C(=O)C(C)=C(c4ccc(C)cc4)S3(=O)=O)cc2)cc1 | inactive: 0% | –
CCC(=O)Nc1ccccc1-c1nc2ccccc2n(Cc2cccc(Br)c2)c1=O | inactive: -12.7% | –
Cn1c(=O)c2sccc2n2c(CCCC(=O)Nc3ccc(Cl)cc3)nnc12 | inactive: 5% | –
COc1ccc(CN2CCCN(CC(=O)Nc3cc(C)ccc3C)S2(=O)=O)cc1 | inactive: 2% | –
CCOC(=O)c1sc(N2C(=O)c3oc4cc(C)c(C)cc4c(=O)c3C2c2ccc(C)cc2)nc1C (stereo unspecified) | inactive: -1.07% | –
O=C(Nc1ccccc1Cl)c1ccc(F)c(S(=O)(=O)NCc2ccc(Cl)c(Cl)c2)c1 | inactive: 4.7% | –

Structure (SMILES) | activity change, negative = inhibition | Potency
CCOC(=O)c1c(C)oc2nc(C)nc(Nc3cc(C)cc(C)c3)c12 | inactive: -0.758% | –
CCc1ccc2oc(C(=O)NCC(c3ccc(Cl)cc3)N3CCOCC3)c(C)c2c1 (stereo unspecified) | inactive: -5.57% | –
CC(=O)N1CCCc2cc(S(=O)(=O)N(CCN(C)C)Cc3ccccc3)ccc21 | inactive: -8.04% | –
Cc1ccc(-n2ncc3c(N4CCCCC4)ncnc32)cc1Cl | inactive: 9.94% | –
COc1ccc(-c2cc(OC(=O)c3ccccc3C)c3c(C)oc(C)c3c(=O)c2)cc1 | inactive: -1.54% | –
CCc1cccc(C)c1NC(=O)c1cc(S(=O)(=O)N(C)Cc2ccccc2)ccc1F | inactive: 7.05% | –
O=C(CSc1nc2ccccc2n1Cc1ccc(F)cc1)N1CCN(c2ccc(F)cc2)CC1 | inactive: 2.49% | –
Cc1csc2nc(COC(=O)c3ccc(F)cc3)cc(=O)n12 | inactive: -3.46% | –
Cc1cccc(N(CC(=O)NCc2ccccc2)S(C)(=O)=O)c1C | inactive: 2.74% | –
CCc1ccc(C2=CC(c3cccc(C)c3)n3c(nc4ccccc43)N2)cc1 (stereo unspecified) | inactive: -4.25% | –
Cc1ccc(C)c(NC(=O)Cn2cnc3c(oc4ccccc43)c2=O)c1 | inactive: 4.84% | –
O=C(Nc1ccc(OCc2cc(=O)n3ccsc3n2)cc1)c1ccc(F)cc1 | inactive: -7.58% | –
Cc1nnc(N2CCC(C(=O)NCCc3ccccc3)CC2)c2nn(-c3ccccc3)c(C)c12 | inactive: -4.58% | –
CCc1ccc(-c2nc(CN3CCC(C(=O)NCCc4ccc(C)cc4)CC3)c(C)o2)cc1 | inactive: -8.35% | –
COc1ccccc1-c1cc(C(=O)N2CCN(c3ccccc3)CC2)no1 | inactive: -14.4% | –
COc1ccc(NC(=O)C(c2ccccc2)N2Cc3ccccc3C2=O)cc1 (stereo unspecified) | inactive: -7.05% | –
Cc1cc(C)c2c(=O)cc(C(=O)Nc3ccc(C)c(Cl)c3)oc2c1 | inactive: -3.59% | –
CCOC(=O)Cn1c(C2CC(=O)N(c3ccc(C)cc3)C2)nc2ccccc21 (stereo unspecified) | inactive: -0.754% | –
CCC(=O)N1c2ccccc2CC1C(=O)NCCc1ccc(SC)cc1 (stereo unspecified) | inactive: 12.3% | –
Cc1ccccc1OCCn1cc(C(=O)C2CCCCC2)c2ccccc21 | inactive: 0.396% | –
COCCn1c(-c2ccccc2)c(C)n2c3c(=O)n(C)c(=O)n(C)c3nc12 | inactive: -5.26% | –
Cc1ccc(C)c(N2CCN(C(=O)Cn3cnc4sc(C)c(S(=O)(=O)N5CCN(c6ncccn6)CC5)c4c3=O)CC2)c1 | inactive: -18.8% | –
O=C(Nc1ccc2c(c1)OCO2)c1cc(-c2cccc(Cl)c2)on1 | inactive: -11.2% | –
O=[N+]([O-])c1ccc(C(c2sc3nc(-c4ccco4)nn3c2O)N2CCN(Cc3ccccc3)CC2)cc1 (stereo unspecified) | inactive: -1.65% | –
